The results in this text go back to PubChem BioAssay AID1347073 (National Center for Advancing Translational Sciences (NCATS), 2019).

The whole screen tested about 45,000 compounds, of which about 200 (0.44%) were called active. Roughly 7% stayed inconclusive and do not appear here. The call rests on the fitted dose curve; in most records, active means well fitted activation curve with a large enough effect; inconclusive means small, poorly fitted or top-dose-only effect; inactive means no such curve, though single readings can be large or run the other way. Some of the results follow.

A short description of this experiment: qHTS of TDP-43 Inhibitors: NCGC Sytravon Library Screen. Further: 0% is about no effect; nearly all actives have a fitted effect of over 55% in size. The note with it: yeast TDP-43 toxicity rescue, BacTiter-Glo growth, 24 h; series mostly up to 46.1 µM; growth rescue (activation): at the top concentration. The gist of the method: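 TDP-43-expressing yeast, pregrown in raffinose, seeded at OD600 0.02 in galactose medium with compound for 24 hr at 30 deg C. Growth read by BacTiter-Glo luminescence, so rescue of toxicity appears as activation.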
On to `COc1ccccc1NC1=C(N2CCCCC2)C(=O)c2ccccc2C1=O`, for which the “growth rescue (activation)” value was inactive: 15.8%.
Turning to `CC(C)c1c(C(=O)N/N=C/c2cccnc2)nnn1-c1nonc1N`, the “growth rescue (activation)” value is inactive: 5.54%.
The same measure for `COc1cccc(C(NC(C)=O)c2nc(-c3cccc(NC(C)=O)c3)cs2)c1` (stereo not given): inactive: -0.633%.
For the compound `CNC(=S)Nc1cccc(Cl)c1C`, the “growth rescue (activation)” value is inactive: 2.81%.
Regarding `COc1cccc(CNCCO)c1OCc1ccccc1Cl`, the “growth rescue (activation)” value was inactive: 11.2%.
The same measure for `COc1cc(S(=O)(=O)N2CCOCC2)ccc1NC(=O)COC(=O)/C=C/c1cc(OC)c(OC)c(OC)c1`: inactive: 1.22%; for `CC(C)(C)c1ccc(S(=O)(=O)NC(=O)C2(C)CCN2C(=O)C2CCCCC2)cc1` (stereo not given): inactive: 18.9%; for `CC(C)Oc1ccc(CCC(=O)NNC(=S)Nc2ccccc2)cc1`: inactive: 12.2%.
The same measure for `CCc1nnc(NC(=O)CSc2nc3ccc(OC)cc3[nH]2)s1`: inactive: -8.17%; for `C/C(=N\NC(=O)c1ccc(C)cc1C)c1ccc2c(c1)OCO2`: inactive: 20.7%; for `NNC(=O)c1cc2ccccc2[nH]1`: inactive: 12.3%.
For the compound `c1ccc2c(c1)oc1c(NCCCN3CCOCC3)ncnc12`, the “growth rescue (activation)” value is inactive: 3.58%.
As for `CC(C)Oc1ccc(C(=O)Nc2cccc(S(=O)(=O)N3CCCC3)c2)cc1`, the “growth rescue (activation)” value was inactive: 26.9%.
For the compound `COc1ccc2c(COC(=O)c3cccc(S(=O)(=O)NCC(C)C)c3)cc(=O)oc2c1`, the “growth rescue (activation)” value is inactive: 16.3%.
On to `CCOc1ccc(NC(=O)NNC(=O)c2ccc(CC)s2)cc1`, for which the “growth rescue (activation)” value is inactive: -2.94%.
To `CCOc1ccc(NC(=O)CN2C(=O)/C(=C3\SC(=S)N(C4CCS(=O)(=O)C4)C3=O)c3ccccc32)cc1` (stereo not given) belongs inactive: -25.2%.
Take `COc1cc(C(=O)COC(=O)C2CCCCC2)cc(OC)c1OC`: the “growth rescue (activation)” value is inactive: 7.67%.
As to `N#Cc1cc([N+](=O)[O-])ccc1NC(=O)CSc1n[nH]c(=O)[nH]c1=O`, the “growth rescue (activation)” value is inactive: -6.96%.
For the compound `Cc1c(CCO)sc[n+]1CC(=O)OC12CC3CC(CC(C3)C1)C2`, the “growth rescue (activation)” value was inactive: -2.57%.
Consider `OCCn1nc2c3ccccc3nc-2n(-c2ccccc2)c1=S`, for which the “growth rescue (activation)” value was inactive: 7.7%.
For the compound `CC(=O)c1cccc(S(=O)(=O)N(C)C2CCN(C)CC2)c1`, the “growth rescue (activation)” value is inactive: 11.3%.
The same measure for `O=C(O)C1=C(C(=O)Nc2cccc(C(F)(F)F)c2)CCCC1`: inactive: -0.596%; for `NC(=O)C12CCCC(Br)(CCC1)C2`: inactive: -0.431%.
As for `Cc1[nH]c2ccc(Cl)cc2c(=O)c1CN1CCCC1`, the “growth rescue (activation)” value was inactive: 6.9%.
On to `CCOC(=O)C1(Cc2ccccc2C)CCCN(C(=O)CCc2cccnc2)C1` (stereo not given), for which the “growth rescue (activation)” value was inactive: 9.53%.
In the case of `Cc1ccc(C(=O)NCc2n[nH]c(=S)n2-c2ccccc2)cc1[N+](=O)[O-]`, the “growth rescue (activation)” value is inactive: -5.08%.
In the case of `O=C(CSc1nnc(NC2CC2)s1)c1ccc[nH]1`, the “growth rescue (activation)” value is inactive: 8.98%.
As for `OC(COCc1ccc2c(c1)OCO2)CN1CCN(Cc2ccccc2)CC1` (stereo not given), the “growth rescue (activation)” value is inactive: -8.74%.
On to `Cn1cc(P(=S)(N2CCOCC2)N2CCOCC2)cc1P(=S)(N1CCOCC1)N1CCOCC1`, for which the “growth rescue (activation)” value was inactive: 5.3%.
For `O=C(NC1CCCN(c2ccc(C(F)(F)F)cn2)C1)c1ccnc(Cl)c1` (stereo not given), the “growth rescue (activation)” value was inactive: 22.1%.
